# Test results reported in the supplement of paper PMC8728848.
# This is one part of the list.
# B1: TREM-2 (Mus musculus), Q99NH8 (protein)
# chain: MGPLHQFLLLLITALSQALNTTVLQGMAGQSLRVSCTYDALKHWGRRKAWCRQLGEEGPCQRVVSTHGVWLLAFLKKRNGSTVIADDTLAGTVTITLKNLQAGDAGLYQCQSLRGREAEVLQKVLVEVLEDPLDDQDAGDLWVPEESSSFEGAQVEHSTSRNQETSFPPTSILLLLACVLLSKFLAASILWAVARGRQKPGTPVVRGLDCGQDAGHQLQILTGPGGT
# What was measured:
# Assay in all cases: glycan array binding signal (z-score within array); higher = stronger binding
# Conditions in all cases: glycan notation: IUPAC condensed, linker removed
# Fuc(a1-2)Gal = target: Fuc(a1-2)Gal
# Method in brief: (§1)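 Glycan array data came from 3228 arrays in the Consortium for Functional Glycomics database, and only arrays with an available protein sequence were kept. Glycan names were put into IUPAC-condensed notation, and columns mapping to the same glycan were averaged. The binding signal is a within-array Z-score, averaged across arrays of one protein sequence run at different concentrations or buffers and across linkers. A negative Z-score can be read as non-binding.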
# Fuc(a1-2)Gal(b1-3)GalNAc = target: Fuc(a1-2)Gal(b1-3)GalNAc
# Method in brief: as §1
# [1] = target: Fuc(a1-2)Gal(b1-3)GalNAc(b1-3)Gal
# Method in brief: as §1
# [2] = target: Fuc(a1-2)Gal(b1-3)GalNAc(b1-3)Gal(a1-4)Gal(b1-4)Glc
# Method in brief: as §1
# [3] = target: Fuc(a1-2)Gal(b1-3)GalNAc(b1-4)[Neu5Ac(a2-3)]Gal(b1-4)Glc
# Method in brief: as §1
# Fuc(a1-2)Gal(b1-3)GlcNAc = target: Fuc(a1-2)Gal(b1-3)GlcNAc
# Method in brief: as §1
# [4] = target: Fuc(a1-2)Gal(b1-3)GlcNAc(b1-3)Gal(b1-4)Glc
# Method in brief: as §1
# [5] = target: Fuc(a1-2)Gal(b1-3)[Fuc(a1-4)]GlcNAc
# Method in brief: as §1
# Fuc(a1-2)Gal(b1-4)Glc = target: Fuc(a1-2)Gal(b1-4)Glc
# Method in brief: as §1
# Fuc(a1-2)Gal(b1-4)GlcNAc = target: Fuc(a1-2)Gal(b1-4)GlcNAc
# Method in brief: as §1
# [6] = target: Fuc(a1-2)Gal(b1-4)GlcNAc(b1-3)Gal(b1-4)GlcNAc
# Method in brief: as §1
# [7] = target: Fuc(a1-2)Gal(b1-4)GlcNAc(b1-3)Gal(b1-4)GlcNAc(b1-3)Gal(b1-4)GlcNAc
# Method in brief: as §1
# [8] = target: Fuc(a1-2)Gal(b1-4)[Fuc(a1-3)]GlcNAc
# Method in brief: as §1
# [9] = target: Fuc(a1-2)Gal(b1-4)[Fuc(a1-3)]GlcNAc(b1-3)Gal(b1-4)[Fuc(a1-3)]GlcNAc
# Method in brief: as §1
# [10] = target: Fuc(a1-2)Gal(b1-4)[Fuc(a1-3)]GlcNAc(b1-3)Gal(b1-4)[Fuc(a1-3)]GlcNAc(b1-3)Gal(b1-4)[Fuc(a1-3)]GlcNAc
# Method in brief: as §1
# Fuc(a1-2)GlcNAc = target: Fuc(a1-2)GlcNAc
# Method in brief: as §1
# Fuc(a1-2)[Gal(a1-3)]Gal = target: Fuc(a1-2)[Gal(a1-3)]Gal
# Method in brief: as §1
# [11] = target: Fuc(a1-2)[Gal(a1-3)]Gal(b1-3)GlcNAc
# Method in brief: as §1
# [12] = target: Fuc(a1-2)[Gal(a1-3)]Gal(b1-4)Glc
# Method in brief: as §1
# [13] = target: Fuc(a1-2)[Gal(a1-3)]Gal(b1-4)GlcNAc
# Method in brief: as §1
# [14] = target: Fuc(a1-2)[Gal(a1-3)]Gal(b1-4)[Fuc(a1-3)]GlcNAc
# Method in brief: as §1
# [15] = target: Fuc(a1-2)[Gal(a1-4)]Gal(b1-4)GlcNAc
# Method in brief: as §1
# [16] = target: Fuc(a1-2)[GalNAc(a1-3)]Gal
# Method in brief: as §1
# [17] = target: Fuc(a1-2)[GalNAc(a1-3)]Gal(b1-3)GlcNAc
# Method in brief: as §1
# [18] = target: Fuc(a1-2)[GalNAc(a1-3)]Gal(b1-4)Glc
# Method in brief: as §1
# [19] = target: Fuc(a1-2)[GalNAc(a1-3)]Gal(b1-4)GlcNAc
# Method in brief: as §1
# [20] = target: Fuc(a1-2)[GalNAc(a1-3)]Gal(b1-4)[Fuc(a1-3)]GlcNAc
# Method in brief: as §1
# [21] = target: Fuc(a1-2)[GalNAc(a1-4)]Gal(b1-4)GlcNAc
# Method in brief: as §1
# [22] = target: Fuc(a1-2)[GalNAc(b1-3)]Gal
# Method in brief: as §1
# Fuc(a1-3)GlcNAc = target: Fuc(a1-3)GlcNAc
# Method in brief: as §1
# [23] = target: Fuc(a1-3)[Gal(b1-4)]GlcNAc
# Method in brief: as §1
# [24] = target: Fuc(a1-3)[Gal(b1-4)]GlcNAc(b1-4)Gal(b1-4)[Fuc(a1-3)]GlcNAc
# Method in brief: as §1
# [25] = target: Fuc(a1-3)[Gal(b1-4)]GlcNAc(b1-4)Gal(b1-4)[Fuc(a1-3)]GlcNAc(b1-4)Gal(b1-4)[Fuc(a1-3)]GlcNAc
# Method in brief: as §1
# [26] = target: Fuc(a1-3)[Gal3S(b1-4)]GlcNAc
# Method in brief: as §1
# [27] = target: Fuc(a1-3)[GalNAc(b1-4)]GlcNAc
# Method in brief: as §1
# Fuc(a1-4)GlcNAc = target: Fuc(a1-4)GlcNAc
# Method in brief: as §1
# Fuc(b1-3)GlcNAc = target: Fuc(b1-3)GlcNAc
# Method in brief: as §1
binder,measurement,setting,value
B1,glycan array binding signal (z-score),Fuc(a1-2)Gal,-0.4
same,glycan array binding signal (z-score),Fuc(a1-2)Gal(b1-3)GalNAc,-0.371
same,glycan array binding signal (z-score),[1],-0.213
same,glycan array binding signal (z-score),[2],-0.247
same,glycan array binding signal (z-score),[3],-0.329
same,glycan array binding signal (z-score),Fuc(a1-2)Gal(b1-3)GlcNAc,-0.394
same,glycan array binding signal (z-score),[4],-0.355
same,glycan array binding signal (z-score),[5],-0.376
same,glycan array binding signal (z-score),Fuc(a1-2)Gal(b1-4)Glc,-0.36
same,glycan array binding signal (z-score),Fuc(a1-2)Gal(b1-4)GlcNAc,-0.407
same,glycan array binding signal (z-score),[6],-0.354
same,glycan array binding signal (z-score),[7],-0.287
same,glycan array binding signal (z-score),[8],-0.39
same,glycan array binding signal (z-score),[9],-0.292
same,glycan array binding signal (z-score),[10],-0.286
same,glycan array binding signal (z-score),Fuc(a1-2)GlcNAc,-0.471
same,glycan array binding signal (z-score),Fuc(a1-2)[Gal(a1-3)]Gal,-0.404
same,glycan array binding signal (z-score),[11],-0.349
same,glycan array binding signal (z-score),[12],-0.308
same,glycan array binding signal (z-score),[13],-0.348
same,glycan array binding signal (z-score),[14],-0.239
same,glycan array binding signal (z-score),[15],-0.361
same,glycan array binding signal (z-score),[16],-0.382
same,glycan array binding signal (z-score),[17],-0.37
same,glycan array binding signal (z-score),[18],-0.292
same,glycan array binding signal (z-score),[19],-0.376
same,glycan array binding signal (z-score),[20],-0.339
same,glycan array binding signal (z-score),[21],-0.425
same,glycan array binding signal (z-score),[22],-0.106
same,glycan array binding signal (z-score),Fuc(a1-3)GlcNAc,-0.416
same,glycan array binding signal (z-score),[23],-0.375
same,glycan array binding signal (z-score),[24],-0.081
same,glycan array binding signal (z-score),[25],-0.306
same,glycan array binding signal (z-score),[26],-0.356
same,glycan array binding signal (z-score),[27],-0.397
same,glycan array binding signal (z-score),Fuc(a1-4)GlcNAc,-0.413
same,glycan array binding signal (z-score),Fuc(b1-3)GlcNAc,-0.402
